# This is one part of the list.
# B1: PX9937A-bvu-521-23-521 (Bacteroides vulgatus) (protein)
# chain: LDLAPEDYYGAGNFWKEASQPKAFMLGLHAQLRSYYDMFYTLGELRGGTQRVGTSSLNTSLNYADIRSQNISEDIPGISNWNGLYSPIMQVNHFIQEVENGCTFLDDATRSRYLGQAYGMRALYYFMLYRTFGGVPLITKVDILDGKPSADKFYVERATPEATMEFIKADINKSENYFGNNTSFDAYDWSRYATLMLKAEIYMWAAKVSITGFTATGATDLQTAKTALSGIIGHFELMDNFASIFSCDNKKNTEIIFAMPFIEGEASNDGGRFLYQDAVFLGQAYGRNGKVIEKDTLNLKGTGGVFRDEYTEDFWKTFKEGDSRRDATFMEYYMKNDNGTLSEFGCVMKKRIGTINSNDNRIYISDIPVYRYADALLMMAEIENGLNNPCASYINEVRKRAYGDTFEENKYTEGSYAENELAILQERDKEFVSEGKRWFDVLRMHDASGRSLVFSANANYPGTNPILGTEEAYKMLWPVNIGTLNVNPLLTQTPGYGKK
# Tests used:
# Experiment in all cases: glycan array binding signal (z-score within array); higher = stronger binding
# Details in all cases: glycan notation: IUPAC condensed, linker removed
# [1] = molecular target: Gal(b1-4)GlcNAc(b1-3)Gal(b1-4)GlcNAc(b1-3)Gal(b1-4)GlcNAc(b1-3)Gal(b1-4)GlcNAc(b1-3)Gal(b1-4)GlcNAc(b1-2)[Gal(b1-4)GlcNAc(b1-3)Gal(b1-4)GlcNAc(b1-3)Gal(b1-4)GlcNAc(b1-3)Gal(b1-4)GlcNAc(b1-3)Gal(b1-4)GlcNAc(b1-6)]Man(a1-6)[Gal(b1-4)GlcNAc(b1-3)Gal(b1-4)GlcNAc(b1-3)Gal(b1-4)GlcNAc(b1-3)Gal(b1-4)GlcNAc(b1-3)Gal(b1-4)GlcNAc(b1-2)Man(a1-3)]Man(b1-4)GlcNAc(b1-4)[Fuc(a1-6)]GlcNAc
# Method in brief: (§1)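 Glycan array data came from 3228 arrays in the Consortium for Functional Glycomics database, and only arrays with an available protein sequence were kept. Glycan names were put into IUPAC-condensed notation, and columns mapping to the same glycan were averaged. The binding signal is a within-array Z-score, averaged across arrays of one protein sequence run at different concentrations or buffers and across linkers. A negative Z-score can be read as non-binding.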
# [2] = molecular target: Gal(b1-4)GlcNAc(b1-3)Gal(b1-4)GlcNAc(b1-3)Gal(b1-4)GlcNAc(b1-3)Gal(b1-4)GlcNAc(b1-3)Gal(b1-4)GlcNAc(b1-3)Gal(b1-4)GlcNAc(b1-2)Man(a1-3)[Gal(b1-4)GlcNAc(b1-3)Gal(b1-4)GlcNAc(b1-3)Gal(b1-4)GlcNAc(b1-3)Gal(b1-4)GlcNAc(b1-3)Gal(b1-4)GlcNAc(b1-3)Gal(b1-4)GlcNAc(b1-2)Man(a1-6)]Man(b1-4)GlcNAc(b1-4)GlcNAc
# Method in brief: as §1
# [3] = molecular target: Gal(b1-4)GlcNAc(b1-3)Gal(b1-4)GlcNAc(b1-3)GalNAc
# Method in brief: as §1
# [4] = molecular target: Gal(b1-4)GlcNAc(b1-3)Gal(b1-4)GlcNAc(b1-3)[Gal(b1-4)GlcNAc(b1-3)Gal(b1-4)GlcNAc(b1-6)]GalNAc
# Method in brief: as §1
# [5] = molecular target: Gal(b1-4)GlcNAc(b1-3)Gal(b1-4)GlcNAc(b1-6)[Gal(b1-3)]GalNAc
# Method in brief: as §1
# [6] = molecular target: Gal(b1-4)GlcNAc(b1-3)Gal(b1-4)[Fuc(a1-3)]GlcNAc(b1-3)Gal(b1-4)[Fuc(a1-3)]GlcNAc
# Method in brief: as §1
# [7] = molecular target: Gal(b1-4)GlcNAc(b1-3)GalNAc
# Method in brief: as §1
# [8] = molecular target: Gal(b1-4)GlcNAc(b1-3)[Fuc(a1-3)GlcNAc(b1-6)]Gal(b1-4)Glc
# Method in brief: as §1
# [9] = molecular target: Gal(b1-4)GlcNAc(b1-3)[Gal(b1-4)GlcNAc(b1-6)]Gal(b1-4)GlcNAc
# Method in brief: as §1
# [10] = molecular target: Gal(b1-4)GlcNAc(b1-3)[GlcNAc(b1-6)]Gal(b1-4)GlcNAc
# Method in brief: as §1
# [11] = molecular target: Gal(b1-4)GlcNAc(b1-6)Gal(b1-4)GlcNAc
# Method in brief: as §1
# [12] = molecular target: Gal(b1-4)GlcNAc(b1-6)GalNAc
# Method in brief: as §1
# [13] = molecular target: Gal(b1-4)GlcNAc(b1-6)[Gal(b1-3)]GalNAc
# Method in brief: as §1
# [14] = molecular target: Gal(b1-4)GlcNAc(b1-6)[Gal(b1-4)GlcNAc(b1-3)]GalNAc
# Method in brief: as §1
# Gal(b1-4)GlcNAc6P = molecular target: Gal(b1-4)GlcNAc6P
# Method in brief: as §1
# Gal(b1-6)Gal = molecular target: Gal(b1-6)Gal
# Method in brief: as §1
# Gal3S(b1-3)GalNAc = molecular target: Gal3S(b1-3)GalNAc
# Method in brief: as §1
# Gal3S(b1-3)GlcNAc = molecular target: Gal3S(b1-3)GlcNAc
# Method in brief: as §1
# [15] = molecular target: Gal3S(b1-3)[Fuc(a1-4)]GlcNAc
# Method in brief: as §1
binder,measurement,setting,value
B1,glycan array binding signal (z-score),[1],0.091
same,glycan array binding signal (z-score),[2],0.665
same,glycan array binding signal (z-score),[3],0.578
same,glycan array binding signal (z-score),[4],-0.424
same,glycan array binding signal (z-score),[5],-0.067
same,glycan array binding signal (z-score),[6],-0.554
same,glycan array binding signal (z-score),[7],-0.456
same,glycan array binding signal (z-score),[8],-0.299
same,glycan array binding signal (z-score),[9],-0.224
same,glycan array binding signal (z-score),[10],-0.325
same,glycan array binding signal (z-score),[11],0.184
same,glycan array binding signal (z-score),[12],-0.363
same,glycan array binding signal (z-score),[13],6.72
same,glycan array binding signal (z-score),[14],0.459
same,glycan array binding signal (z-score),Gal(b1-4)GlcNAc6P,0.719
same,glycan array binding signal (z-score),Gal(b1-6)Gal,0.277
same,glycan array binding signal (z-score),Gal3S(b1-3)GalNAc,-0.408
same,glycan array binding signal (z-score),Gal3S(b1-3)GlcNAc,-0.049
same,glycan array binding signal (z-score),[15],-0.211

# — the supplement of paper PMC8728848
